Measured values published in the supplement of paper PMC9446081.
About 220 (0.56%) of roughly 39,000 compounds showed activity. This is one part of the list.

These molecules were tested on Escherichia coli K-12 BW25113 (assay: relative growth (OD600 normalised to plate interquartile mean) (fraction); higher = less growth inhibition, active = 0.2 or less). Conditions: 50 µM; LB; incubation time: overnight (16-24 h).
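Note: static incubation at 37 °C against the wild-type strain, values averaged over two biological replicates.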

Structure (SMILES)	relative growth
COc1ccc(S(=O)(=O)N(C)C[C@H]2Oc3c(NS(=O)(=O)c4cccs4)cccc3C(=O)N([C@@H](C)CO)C[C@H]2C)cc1	inactive: 1.03
Cc1noc(C)c1NC(=O)N(C)C[C@@H]1OCCCC[C@@H](C)Oc2ccc(NS(=O)(=O)c3ccccc3)cc2C(=O)N([C@H](C)CO)C[C@H]1C	inactive: 1
C[C@H]1CCCCO[C@H](CN(C)C(=O)NC2CCCCC2)[C@@H](C)CN([C@@H](C)CO)C(=O)c2cc(NC(=O)CCC(F)(F)F)ccc2O1	inactive: 0.958
COc1ccc(NC(=O)Nc2ccc3c(c2)CC(=O)N([C@@H](C)CO)C[C@H](C)[C@H](CN(C)Cc2ccc(Cl)c(Cl)c2)O3)cc1	inactive: 1.03
C[C@H]1CN([C@@H](C)CO)S(=O)(=O)c2ccc(C#CCN(C)C)cc2O[C@@H]1CN(C)Cc1cccnc1	inactive: 1
C[C@@H]1CN([C@H](C)CO)C(=O)c2cc(C#CC3(O)CCCC3)cnc2O[C@H]1CN(C)C(=O)C1CCOCC1	inactive: 0.984
COCC#Cc1ccc2c(c1)O[C@H](CN(C)S(C)(=O)=O)[C@H](C)CN([C@H](C)CO)S2(=O)=O	inactive: 1.04
C[C@@H]1CCCCO[C@@H](CN(C)Cc2ccccc2)[C@H](C)CN([C@@H](C)CO)C(=O)c2cc(NC(=O)Nc3ccc4c(c3)OCO4)ccc2O1	inactive: 1.01
O=C(C[C@@H]1CC[C@@H]2[C@H](COC[C@H](O)CN2S(=O)(=O)c2ccccc2F)O1)NCc1ccccc1Cl	inactive: 0.912
CC(C)CC#Cc1cnc2c(c1)C(=O)N([C@H](C)CO)C[C@H](C)[C@H](CN(C)S(=O)(=O)c1ccccc1)O2	inactive: 1.02
COc1ccc(NC(=O)N(C)C[C@H]2Oc3ccc(NS(C)(=O)=O)cc3CC(=O)N([C@@H](C)CO)C[C@@H]2C)cc1	inactive: 1.02
Cl.Nc1ccn(C2OC(CO)C(O)C2(F)F)c(=O)n1 (configuration not stated)	inactive: 1.09
C[C@@H]1CN([C@@H](C)CO)C(=O)c2cc(NS(=O)(=O)c3cccs3)ccc2O[C@@H]1CN(C)Cc1ccc(Oc2ccccc2)cc1	inactive: 0.981
C[C@@H]1CN([C@H](C)CO)C(=O)c2cc(NC(=O)Cc3ccccc3)ccc2O[C@H]1CN(C)S(=O)(=O)c1ccccc1	inactive: 0.978
Cc1ccc(S(=O)(=O)N(C)C[C@@H]2OCCCC[C@H](C)Oc3ccc(NC(=O)Nc4ccc5c(c4)OCO5)cc3C(=O)N([C@H](C)CO)C[C@H]2C)cc1	inactive: 1.02
C[C@@H]1CCCCO[C@H](CN(C)C(=O)Nc2cccc3ccccc23)[C@H](C)CN([C@@H](C)CO)C(=O)c2cc(NC(=O)Nc3ccc(C(F)(F)F)cc3)ccc2O1	inactive: 0.868
C[C@@H]1CN([C@H](C)CO)C(=O)c2cc(NC(=O)C3CCCCC3)ccc2O[C@@H](C)CCCCO[C@H]1CN(C)C(=O)Cc1ccccc1	inactive: 1.01
CSCC[C@H](NC(=O)[C@H](Cc1c[nH]c2ccccc12)NC(=O)CNC(=O)[C@@H](NC(=O)[C@H](Cc1ccc(OS(=O)(=O)O)cc1)NC(=O)[C@H](CC(=O)O)NC(=O)[C@H](CCC(N)=O)NC(=O)[C@@H]1CCC(=O)N1)[C@@H](C)O)C(=O)N[C@@H](CC(=O)O)C(=O)N[C@@H](Cc1ccccc1)C(N)=O	inactive: 1.01
C[C@@H]1CN([C@@H](C)CO)C(=O)c2cc(NS(=O)(=O)c3cccs3)ccc2O[C@@H](C)CCCCO[C@@H]1CN(C)C(=O)Nc1ccc2c(c1)OCO2	inactive: 1.04

Structure (SMILES)	relative growth
C[C@H](CO)N1C[C@H](C)[C@H](CN(C)C(=O)Nc2cccc3ccccc23)Oc2ncc(-c3ccc(F)cc3)cc2C1=O	inactive: 1.02
C[C@H]1CN([C@@H](C)CO)S(=O)(=O)c2ccc(C#CC(C)(C)O)cc2O[C@@H]1CN(C)Cc1ccccc1	inactive: 1.01
O=C(C[C@@H]1CC[C@H]2[C@@H](COC[C@@H](O)CN2S(=O)(=O)c2ccc(F)cc2)O1)N1CCc2ccccc2C1	inactive: 1.02
COC(=O)CCn1ccc(=O)[nH]c1=O	inactive: 0.995
C[C@@H]1CCCCO[C@@H](CN(C)Cc2ccc3c(c2)OCO3)[C@H](C)CN([C@@H](C)CO)C(=O)c2cc(NC(=O)Cc3ccccc3)ccc2O1	inactive: 1.01
c1ccc2[nH]c(-c3cscn3)nc2c1	inactive: 1
CN(C)c1nc(Oc2ccc(=O)n(C)n2)nc(N(C)C)n1	inactive: 1.02
C[C@H]1CN([C@@H](C)CO)C(=O)c2cccc(NC(=O)C3CC3)c2O[C@@H]1CN(C)S(=O)(=O)c1ccccc1	inactive: 0.999
Cc1noc(C)c1NC(=O)Nc1ccc2c(c1)C(=O)N([C@@H](C)CO)C[C@@H](C)[C@H](CN(C)Cc1ccc3c(c1)OCO3)OCCCC[C@@H](C)O2	inactive: 0.989
O=C(C[C@@H]1CC[C@@H]2[C@H](COC[C@H](O)CN2S(=O)(=O)c2ccc(F)cc2)O1)N[C@H]1CCN(Cc2ccccc2)C1	inactive: 0.992
C[C@H]1CN([C@@H](C)CO)C(=O)c2cccc(NC(=O)Nc3cccc4ccccc34)c2O[C@@H]1CN(C)C(=O)Nc1ccccc1	inactive: 1.01
C[C@@H]1CN([C@H](C)CO)C(=O)Cc2cc(NS(C)(=O)=O)ccc2O[C@H]1CN(C)S(C)(=O)=O	inactive: 0.964
Cc1cc(C(=O)Nc2cccc3c2O[C@@H](CN(C)S(=O)(=O)c2cccs2)[C@H](C)CN([C@H](C)CO)C3=O)n(C)n1	inactive: 1.02
C[C@H]1CN([C@@H](C)CO)C(=O)c2cc(NC(=O)Cn3cnnn3)ccc2O[C@H]1CN(C)S(=O)(=O)c1cn(C)cn1	inactive: 1
C[C@@H]1CN([C@@H](C)CO)C(=O)c2cccc(NC(=O)Nc3ccc(C(F)(F)F)cc3)c2O[C@H]1CN(C)C(=O)Nc1ccc(C(F)(F)F)cc1	inactive: 0.951
C[C@@H](O)[C@@H](O)[C@@H](O)C/C=N/NC(=O)CCCCCCC(=O)NO	inactive: 0.976
O=C(C=Cc1ccc(O)c(O)c1)C=C(O)C=Cc1ccc(O)c(O)c1	inactive: 0.984
Cc1ccc(/C=N/c2ccccc2Sc2c(C)n[nH]c2C)cc1	inactive: 0.987
CNC[C@@H]1Oc2ccc(NC(=O)Cn3cnnn3)cc2CC(=O)N([C@@H](C)CO)C[C@@H]1C	inactive: 1.02

Structure (SMILES)	relative growth
C[C@H]1CN([C@@H](C)CO)C(=O)Cc2cc(N(C)C)ccc2O[C@H]1CN(C)S(=O)(=O)c1ccc(Cl)cc1	inactive: 0.999
C[C@@H]1CCCCO[C@@H](CN(C)C(=O)NC2CCCCC2)[C@@H](C)CN([C@H](C)CO)C(=O)c2cc(NC(=O)c3ccncc3)ccc2O1	inactive: 1
COc1cccc(-c2cn(CC[C@@H]3CC[C@H](NS(=O)(=O)c4ccccc4Cl)[C@H](CO)O3)nn2)c1	inactive: 1.01
Cc1ccc(S(=O)(=O)Nc2cccc3c2O[C@H](CN(C)Cc2ccc(Cl)c(Cl)c2)[C@@H](C)CN([C@@H](C)CO)C3=O)cc1	inactive: 1.03
COc1ccc(S(=O)(=O)N2C[C@H](O)COC[C@H]3O[C@H](CC(=O)NCCCN(C)C)CC[C@@H]32)cc1	inactive: 0.966
C[C@@H]1CCCCO[C@H](CN(C)C(=O)Nc2cccc3ccccc23)[C@H](C)CN([C@@H](C)CO)C(=O)c2cc(NC(=O)c3ccncc3)ccc2O1	inactive: 0.969
O=C(C[C@@H]1CC[C@H]2[C@@H](COC[C@@H](O)CN2S(=O)(=O)c2ccc(Cl)cc2)O1)N1CCc2ccccc2C1	inactive: 0.995
CC(=O)n1cc([C@H]2C=C(C(=O)N3CCCCCCC3)O[C@@H](OCc3ccc(COC(=O)NCCCCCC(=O)NO)cc3)C2)c2ccccc21	inactive: 0.933
C[C@H](CO)N1C[C@H](C)[C@@H](CN(C)Cc2cncnc2)Oc2cc(-c3ccccc3F)ccc2S1(=O)=O	inactive: 0.994
C[C@@H]1CN([C@@H](C)CO)C(=O)c2cccc(NC(=O)c3ccncc3)c2O[C@@H]1CN(C)S(=O)(=O)c1cccs1	inactive: 1.01
C[C@H](CO)N1C[C@H](C)[C@@H](CN(C)Cc2ccc(-c3ccccc3)cc2)Oc2ccc(NC(=O)C3CC3)cc2C1=O	inactive: 1.02
C[C@H]1CN([C@@H](C)CO)C(=O)c2cccc(NC(=O)C3CCCCC3)c2O[C@@H]1CN(C)Cc1ccc(-c2ccccc2)cc1	inactive: 0.983
CCCN(C)C[C@H]1Oc2cc(C#Cc3ccccc3OC)ccc2S(=O)(=O)N([C@@H](C)CO)C[C@H]1C	inactive: 1.01
COc1ccc(S(=O)(=O)N2C[C@H](O)COC[C@@H]3O[C@H](CC(=O)N[C@H]4CCN(Cc5ccccc5)C4)CC[C@H]32)cc1	inactive: 1.03
C[C@@H]1CN([C@H](C)CO)C(=O)Cc2cc(NC(=O)Nc3ccc(F)cc3)ccc2O[C@@H]1CN(C)S(=O)(=O)c1cn(C)cn1	inactive: 1.02
COc1ccc2c3c(n(c2c1)C)[C@H](CO)N(C[C@]13CN(C1)S(=O)(=O)c1cn(cn1)C)C(=O)Nc1ccc(cc1)F	inactive: 1.02
C[C@@H]1CCCCO[C@@H](CN(C)C(=O)CCC(F)(F)F)[C@@H](C)CN([C@@H](C)CO)C(=O)c2cc(NC(=O)CCC(F)(F)F)ccc2O1	inactive: 0.984
C[C@H]1CCCCO[C@@H](CN(C)Cc2ccccc2)[C@@H](C)CN([C@@H](C)CO)C(=O)c2cc(NC(=O)c3ccccc3)ccc2O1	inactive: 0.996
CC(C)NC(=O)N(C)C[C@H]1Oc2ccc(NC(=O)C3CCCCC3)cc2C(=O)N([C@@H](C)CO)C[C@@H]1C	inactive: 1.01
